In publication PMC9911399, “Two distinct binding modes provide the RNA-binding protein RbFox with extraordinary sequence specificity”:
Substitutions are numbered along the chain they refer to; changes in the protein carry UniProt numbers. The list shows a part of the results.

B1: GGCUUCG (DNA:RNA)
RNA: GGGAGACCGGAAUUCAGAUUGUCCGGCUUCGUUAAAUCCCGUCGUAGCCACCA
DNA 1: CAATCTGAATTCCGGTCTCCC
DNA 2: TGGTGGCTACGACGGGATT
B2: UUUCGCA (DNA:RNA)
RNA: B1 RNA with G25U, G26U, C27U, U28C, U29G, G31A
DNA 1: CAATCTGAATTCCGGTCTCCC
DNA 2: TGGTGGCTACGACGGGATT
B3: ACGACGG (DNA:RNA)
RNA: B1 RNA with G25A, G26C, C27G, U28A, U29C, C30G
DNA 1: CAATCTGAATTCCGGTCTCCC
DNA 2: TGGTGGCTACGACGGGATT
B4: ACUUCCC (DNA:RNA)
RNA: B1 RNA with G25A, G26C, C27U, U29C, G31C
DNA 1: CAATCTGAATTCCGGTCTCCC
DNA 2: TGGTGGCTACGACGGGATT
B5: UGGGCGA (DNA:RNA)
RNA: B1 RNA with G25U, C27G, U28G, U29C, C30G, G31A
DNA 1: CAATCTGAATTCCGGTCTCCC
DNA 2: TGGTGGCTACGACGGGATT
B6: AGCUCUC (DNA:RNA)
RNA: B1 RNA with G25A, U29C, C30U, G31C
DNA 1: CAATCTGAATTCCGGTCTCCC
DNA 2: TGGTGGCTACGACGGGATT
B7: AGGUUCC (DNA:RNA)
RNA: B1 RNA with G25A, C27G, G31C
DNA 1: CAATCTGAATTCCGGTCTCCC
DNA 2: TGGTGGCTACGACGGGATT
B8: GAUAACG (DNA:RNA)
RNA: B1 RNA with G26A, C27U, U28A, U29A
DNA 1: CAATCTGAATTCCGGTCTCCC
DNA 2: TGGTGGCTACGACGGGATT
B9: UCUUUGA (DNA:RNA)
RNA: B1 RNA with G25U, G26C, C27U, C30G, G31A
DNA 1: CAATCTGAATTCCGGTCTCCC
DNA 2: TGGTGGCTACGACGGGATT
B10: ACGCAAC (DNA:RNA)
RNA: GGGAGACCGGAAUUCAGAUUGUCCACGCAACUUAAAUCCCGUCGUAGCCACCA
DNA 1: CAATCTGAATTCCGGTCTCCC
DNA 2: TGGTGGCTACGACGGGATT
B11: GAAUAAG (DNA:RNA)
RNA: B1 RNA with G26A, C27A, U29A, C30A
DNA 1: CAATCTGAATTCCGGTCTCCC
DNA 2: TGGTGGCTACGACGGGATT
B12: ACACUCG (DNA:RNA)
RNA: B10 RNA with G27A, A29U, A30C, C31G
DNA 1: CAATCTGAATTCCGGTCTCCC
DNA 2: TGGTGGCTACGACGGGATT
B13: CUCGCCG (DNA:RNA)
RNA: B1 RNA with G25C, G26U, U28G, U29C
DNA 1: CAATCTGAATTCCGGTCTCCC
DNA 2: TGGTGGCTACGACGGGATT
B14: GACUAAA (DNA:RNA)
RNA: B1 RNA with G26A, U29A, C30A, G31A
DNA 1: CAATCTGAATTCCGGTCTCCC
DNA 2: TGGTGGCTACGACGGGATT
B15: CUUCUGA (DNA:RNA)
RNA: B10 RNA with A25C, C26U, G27U, A29U, A30G, C31A
DNA 1: CAATCTGAATTCCGGTCTCCC
DNA 2: TGGTGGCTACGACGGGATT
B16: ACGACCU (DNA:RNA)
RNA: B10 RNA with C28A, A29C, A30C, C31U
DNA 1: CAATCTGAATTCCGGTCTCCC
DNA 2: TGGTGGCTACGACGGGATT
B17: CCUCGUA (DNA:RNA)
RNA: B10 RNA with A25C, G27U, A29G, A30U, C31A
DNA 1: CAATCTGAATTCCGGTCTCCC
DNA 2: TGGTGGCTACGACGGGATT
B18: CGCGGCU (DNA:RNA)
RNA: B1 RNA with G25C, U28G, U29G, G31U
DNA 1: CAATCTGAATTCCGGTCTCCC
DNA 2: TGGTGGCTACGACGGGATT
B19: CCCCUGU (DNA:RNA)
RNA: B10 RNA with A25C, G27C, A29U, A30G, C31U
DNA 1: CAATCTGAATTCCGGTCTCCC
DNA 2: TGGTGGCTACGACGGGATT
B20: UAAGAAG (DNA:RNA)
RNA: B10 RNA with A25U, C26A, G27A, C28G, C31G
DNA 1: CAATCTGAATTCCGGTCTCCC
DNA 2: TGGTGGCTACGACGGGATT

molecular target: T1, RBFOX1 RRM (Homo sapiens, UniProt Q9NWB1 109-208); test: EMSA; HiTS-Eq, 1 nM pool, 10 min; buffer printed only for the single-RNA assays: 10 mM Tris pH 7.5, 150 mM NaCl, 3.4 mM EDTA, 0.001% NP-40, 30 C; settings: tags: His6 N-terminal (pET28a); label: 5' 32P
T1 sequence: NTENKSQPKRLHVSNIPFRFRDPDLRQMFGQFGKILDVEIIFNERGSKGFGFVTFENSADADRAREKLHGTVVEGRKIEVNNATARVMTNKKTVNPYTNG
Summary of the method: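 Relative association constants, normalised to the cognate motif, were derived by comparing read counts of each RNA species with those of the control reaction. The RNA sequenced was the free fraction, separated by 8% native PAGE after a 10 min equilibration in 50 µL of 1 nM 5′-radiolabelled RNA (7 randomized nucleotides) with increasing concentrations of purified wild-type or mutant RbFox RRM.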

| Binder | binding signal |
| --- | --- |
| B1 | 0.0137 KA relative to UGCAUGU |
| B2 | 0.0125 KA relative to UGCAUGU |
| B3 | 0.0147 KA relative to UGCAUGU |
| B4 | 0.00296 KA relative to UGCAUGU |
| B5 | 0.029 KA relative to UGCAUGU |
| B6 | 0.00667 KA relative to UGCAUGU |
| B7 | 0.0132 KA relative to UGCAUGU |
| B8 | 0.0119 KA relative to UGCAUGU |
| B9 | 0.0194 KA relative to UGCAUGU |
| B10 | 0.00681 KA relative to UGCAUGU |
| B11 | 0.00785 KA relative to UGCAUGU |
| B12 | 0.00238 KA relative to UGCAUGU |
| B13 | 0.00773 KA relative to UGCAUGU |
| B14 | 0.00357 KA relative to UGCAUGU |
| B15 | 0.0251 KA relative to UGCAUGU |
| B16 | 0.00588 KA relative to UGCAUGU |
| B17 | 0.00353 KA relative to UGCAUGU |
| B18 | 0.016 KA relative to UGCAUGU |
| B19 | 0.0053 KA relative to UGCAUGU |
| B20 | 0.00847 KA relative to UGCAUGU |
